40 sequences from the supplement of paper PMC10338343 can be followed below.

± gives the standard deviation. This is a selection; strong and weak results do not stand in their true shares.
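Further: 1 nM active piRISC with 0.1 nM target library at 33 °C single turnover.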

In this assay the test system is MIWI (PIWIL1) piRISC loaded with piRNA #1 (30 nt). Kind of assay: pre-steady-state target cleavage rate (min^-1); MIWI and MILI are mouse PIWI proteins and EfPiwi is from a freshwater sponge; tags in brackets are library labels; higher = faster piRNA-guided slicing of the target. The conditions noted are these: guide: piRNA #1 5'p-UGAGGUAGUAGGUUGUAUAGUAUCCAGAGG; auxiliary factor: 500 nM mouse GTSF1. In short, it runs like this:
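A burst-and-steady-state fit was used to obtain the pre-steady-state cleavage rate. The input data were sequencing reads of uncleaved targets, normalised to depth and to weakly complementary targets, from a […] transcribed, DNA-blocked target RNA library mixed with 1 nM active affinity-purified piRISC holding one synthetic guide, with or without 500 nM GTSF1 partner protein, in HEPES–potassium acetate buffer at 33 °C for 0–8 or 0–960 min. Three trials were pooled and k3 was capped at 0.0001 min^-1.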
With GGAGAGCGAUACUAUACAACCUACUACCUCA, the “pre-steady-state target cleavage rate” value amounted to 1.97 ± 0.11.
Next, GGAGACCUAUCUAUACAACGUACUACCACA: 0.113 ± 0.023; GGAGAGGAUACUAUAACAACCUACUACCUCA: 1.3 ± 0.087.
Regarding GGACUCGAAACUAUACAACCUACUACCUCA, the “pre-steady-state target cleavage rate” value came out at 1.29 ± 0.11.
Regarding GGUCUGGAUACUAUAGCAACCUACUACCUCA, the “pre-steady-state target cleavage rate” value is 1.13 ± 0.12.
GGAGACCUUACUAUACAACCAACUACCUCA: the “pre-steady-state target cleavage rate” value is 0.0758 ± 0.0091.
GGACUGUGAUACUAUACAACCUACUACCUCA: the “pre-steady-state target cleavage rate” value came out at 1.72 ± 0.11.
As to GGAGACCAUACUAUACAACCUACUACCACA, the “pre-steady-state target cleavage rate” value was found to be 1.68 ± 0.15.
With GGAGACGAUACUAUACAACCUACUACCAGA, the “pre-steady-state target cleavage rate” value is 0.562 ± 0.053.
Next, GGUGUGGAUACUAUACAAGCUACUACCUCA: 0.873 ± 0.035.
Turning to CCUCUGGAUACUACUACAACCUACUACCUCA, the “pre-steady-state target cleavage rate” value was found to be 1.64 ± 0.098.
With GGAGACCUUACUAUACAACCUACUACGUGA, the “pre-steady-state target cleavage rate” value was found to be 0.675 ± 0.064.
Consider CCUCUGGAUACUAUACAAGCUACUACGUCA, for which the “pre-steady-state target cleavage rate” value was found to be 1.03 ± 0.05.
In the case of GGAGAGGAUACUAUACAACGUACUACGUCA, the “pre-steady-state target cleavage rate” value came out at 0.483 ± 0.059.
Regarding GGAGACCUAACUAUAUCAACCUACUACCUCA, the “pre-steady-state target cleavage rate” value is 0.00536 ± 0.0033.
For the sequence GGAGUGGAUACUAUACAACGUACUACCACA, the “pre-steady-state target cleavage rate” value is 0.215 ± 0.037.
Turning to GGACUGGAUACUAUACAACCCACUACCUCA, the “pre-steady-state target cleavage rate” value turned out to be 0.515 ± 0.039.
In the case of GGAGACCUUACUAUACAACGUACUAGCUCA, the “pre-steady-state target cleavage rate” value came to 0.186 ± 0.033.
For GGAGACCUAUGAUAUCAACCUACAACCUCA, the “pre-steady-state target cleavage rate” value is < 0.0001.
Regarding CCUCUGGUUACUAUACAACGUACUACCUCA, the “pre-steady-state target cleavage rate” value stood at 0.405 ± 0.026.
Take GGAGACCUAUCUAUACAACGUACAACCUCA: the “pre-steady-state target cleavage rate” value amounted to 0.00585 ± 0.0031.
GGACUGGAUACUAUACAACCUACUACCUUCA: the “pre-steady-state target cleavage rate” value was found to be 0.946 ± 0.089.
For GGAGACCAUAGAUUACAACCUACUACCUCA, the “pre-steady-state target cleavage rate” value is 0.0808 ± 0.026.
Consider GGAGACCUAACUAUACAACCUUCUACCUCA, for which the “pre-steady-state target cleavage rate” value is 0.206 ± 0.021.
As to CCUCAGGAUACUAUACUACCUACUACCUCA, the “pre-steady-state target cleavage rate” value was found to be 1.87 ± 0.12.
For GCUCUGGGUACUAUACAACCUACUACCUCA, the “pre-steady-state target cleavage rate” value amounted to 1.76 ± 0.091.
For the sequence CCUCUGGAAUCUAUACAACCUACUACCUCA, the “pre-steady-state target cleavage rate” value turned out to be 1.78 ± 0.1.
Turning to CCUCUGGAUGACUAUACAACCUACUACCUCA, the “pre-steady-state target cleavage rate” value was determined as 1.21 ± 0.088.
Take GGAGAGGAUACAAUACAACCUACUACCACA: the “pre-steady-state target cleavage rate” value was determined as 1.13 ± 0.075.
For the sequence GGAGACCUUACUAUUCAACGUACUACCUCA, the “pre-steady-state target cleavage rate” value is 0.204 ± 0.021.
Consider GGAGAGGAUACUAUACCACCUACUACCUCA, for which the “pre-steady-state target cleavage rate” value was determined as 1.26 ± 0.052.
On to GGACUGGAUACUAAACAAGCUACUACCUCA, for which the “pre-steady-state target cleavage rate” value is 1.06 ± 0.072.
The figure for GGUCAGGAUACUAUACAACCUACUACCUGA is 0.498 ± 0.051; for GGACAGGAUACUAUACAACCUACUACGUCA it is 0.643 ± 0.057; for GGAGUGGAUACUAUACAACCUAAUACCUCA it is 0.541 ± 0.048.
Take GGAGAGGAUACAAUUCAACCUACUACCUCA: the “pre-steady-state target cleavage rate” value came out at 1.06 ± 0.07.
With GGAGACCUAUCCUAUACAACCUACUACCUCA, the “pre-steady-state target cleavage rate” value was found to be 1.08 ± 0.1.
On to GGAGUGGAUACUAUACAACCCACUACCUCA, for which the “pre-steady-state target cleavage rate” value was determined as 0.505 ± 0.029.
Consider CCUCUGGAAACUAUACAACCAACUACCUCA, for which the “pre-steady-state target cleavage rate” value amounted to 0.172 ± 0.022.
As to GGACUGGAUACAAUACAACCUACUACGUCA, the “pre-steady-state target cleavage rate” value was 0.563 ± 0.054.
